Here are results for 83 molecules from ChEMBL document CHEMBL4888484, “Replenishing the malaria drug discovery pipeline: Screening and hit evaluation of the MMV Hit Generation Library 1 (HGL1) against asexual blood stage Plasmodium falciparum ,using a nano luciferase reporter read-out” (2022).

A word on the % Inhibition: it is the drop in the measured response relative to a control, in per cent.

Structures are written as SMILES. Screen size: about 150,000 compounds; about 540 (0.36%) showed an effect of 50% or more. The list shows a part of the results.

The assay relates to Plasmodium falciparum. Put plainly: Primary screen in NF54 nanoGlo assay, in single point, at 2uM, 72h; a lower Z score goes with more inhibition. Format: functional, Erythrocyte. To be noted: timepoint 72 hour.
As to `CC(C)C(=O)N(Cc1ccc(F)cc1)Cc1cc(-c2ccccc2)on1`, the “% Inhibition” value was -10% and the Z score is 1.46.
For `CC(C)Oc1nc(-c2cccc(C(F)(F)F)c2)n(-c2ccc(NC(=O)c3ccc4ccccc4c3)cc2)n1`, the “% Inhibition” value is reported as -14% and the Z score was found to be 2.33.
Regarding `CCc1ccccc1N(C(C)=O)c1nc(CN2C(=O)c3ccccc3CS2(=O)=O)cs1`, the “% Inhibition” value is on record as -1% and the Z score is listed as 0.15.
Regarding `O[C@H]1CN(C/C=C/c2ccc(F)cc2)C[C@@H]1N1CCCC1`, the “% Inhibition” value is listed as -15% and the Z score was found to be 1.46.
Take `Cc1ccc(S(=O)(=O)N2CC3(C2)CC2(CCC2)C3)cc1`: the “% Inhibition” value is -8% and the Z score is 1.43.
Regarding `Cc1cccc(F)c1S(=O)(=O)N1C[C@H](c2cn(C)cn2)[C@@H](N)C1`, the “% Inhibition” value was 3% and the Z score is reported as -0.59.
In the case of `CCN(C(=O)NCc1ccoc1C)[C@@H](C)CS(C)(=O)=O`, the “% Inhibition” value is given as 1% and the Z score is -0.16.
For `CC(C)C(=O)NC1CC[N+](Cc2csc(C3CCCCC3)n2)(Cc2csc(C3CCCCC3)n2)CC1`, the “% Inhibition” value is 2% and the Z score was -0.3.
Consider `COC(=O)c1c(NC(C)=O)c2cc(NCC(C)(C)C)cnc2n1CCc1ccc(OC)cc1`, for which the “% Inhibition” value is -7% and the Z score is 0.87.
For the molecule `Cc1noc([C@@H]2CN(C(=O)c3cscn3)C[C@H]2C(N)=O)n1`, the “% Inhibition” value is listed as -11% and the Z score is given as 1.68.
As for `CC[C@H](C)N(Cc1ccc(N(CC)CC)cc1OS(C)(=O)=O)C(=O)COC`, the “% Inhibition” value is listed as -1% and the Z score came out at 0.14.
Regarding `O=S1(=O)CC[C@H](NCCc2cscn2)c2cc(Cl)ccc21`, the “% Inhibition” value was -11% and the Z score is reported as 1.16.
As for `Cc1ccc(CNc2ccc(C(=O)NCc3cccnc3)cc2S(=O)(=O)N2CCOCC2)cc1`, the “% Inhibition” value is listed as -7% and the Z score came out at 1.38.
For `Nc1c(-c2ccccc2)sc2ncccc12`, in that order: 3% and -0.36.
For `CN1CC[C@H](N(C)C(=O)c2ccc(-c3ccc4c(=O)[nH]ccc4c3)cc2)C1`, in that order: -4% and 0.47.
As for `CC(=O)N1CCC(C(=O)Nc2ccc(F)cc2)(N(Cc2ccc(C)cc2)C(=O)c2ccc(C#N)cc2)CC1`, the “% Inhibition” value is given as -3% and the Z score was determined as 0.4.
`O=C(CNS(=O)(=O)c1ccc2ccccc2c1)N1CCC(c2nc3ccccc3o2)CC1`: the “% Inhibition” value is given as -16% and the Z score amounted to 2.33.
For `Cc1c(Cl)cccc1S(=O)(=O)N1CCC[C@@H]1CS(=O)(=O)c1ccccc1`, in that order: -3% and 0.53.
For `Cc1nc(C(C)C)oc1C(=O)N[C@@H]1C(=O)N(C)Cc2ccccc21`, in that order: 0% and -0.01.
In the case of `CCCCNCC#CCOc1cc(C)ccc1C(C)C`, the “% Inhibition” value is on record as 2% and the Z score is -0.3.
For `CC[C@H](C)N(CC(=O)O)C(=O)Cc1cc(C)on1`, in that order: 0% and -0.06.
As to `COc1cccc(C=CCCN2CCCN(C3CCOCC3)CC2)c1`, the “% Inhibition” value was -4% and the Z score is given as 0.4.
Turning to `CCc1ccc(C(=O)N(C)CC2(CO)CCOCC2)[nH]1`, the “% Inhibition” value is recorded as -14% and the Z score came out at 1.39.
Regarding `COc1cccc(NC(=O)c2ccccc2-c2nc3ccccc3s2)c1`, the “% Inhibition” value is reported as -5% and the Z score came out at 0.7.
`Cc1cn2ccnc(C(=O)Nc3cc(C(=O)N4CCOCC4)ccc3C)c2n1`: the “% Inhibition” value is listed as -19% and the Z score stood at 3.06.
With `CC(C)(C)c1ccccc1S(=O)(=O)Nc1ccc(-c2nc[nH]n2)cc1F`, the “% Inhibition” value is on record as 12% and the Z score is on record as -1.99.
Take `COCc1nc(CNC(=O)N[C@H](C)c2ccc(Cl)cc2)cs1`: the “% Inhibition” value is given as -13% and the Z score came out at 1.92.
As to `CCn1cnnc1CCNC(=O)c1nccnc1C(=O)N1CCCCC1`, the “% Inhibition” value is given as -4% and the Z score stood at 0.68.
Regarding `COCCn1nnc2cc(S(=O)(=O)N(C)CC(=O)NCc3cccnc3)ccc21`, the “% Inhibition” value is recorded as -26% and the Z score came to 2.27.
For `O=c1n(C[C@H]2CCOC2)nc2cnccn12`, the “% Inhibition” value is -10% and the Z score was 0.87.
Turning to `Cc1noc(-c2ccc(C(C)(C)C)cc2)c1C(=O)N[C@H]1CCCc2ccccc21`, the “% Inhibition” value was -15% and the Z score is 1.69.
Turning to `C[C@H](NC(=O)CCCn1cnnn1)c1nc(-c2ccncc2)no1`, the “% Inhibition” value is -17% and the Z score is recorded as 1.79.
For `CCCN1CCC2(CC1)CCN(C(=O)c1ccc(Cl)c(C)c1)C[C@@H]2CO` the same measures were -1% and 0.23.
For `COc1ncc(Cl)c(N2CCC[C@H]2c2nc3ccccc3s2)n1`, in that order: -5% and 0.46.
For `CC(C)(C)OC(=O)N[C@H]1CCN(Cc2nccn2CC(F)(F)F)C1`, in that order: -8% and 1.14.
Consider `N#Cc1cc(Br)ccc1NCC1CCS(=O)(=O)CC1`, for which the “% Inhibition” value is -10% and the Z score is recorded as 1.96.
For `O=C1CN(C(=O)c2cc(C3CC3)[nH]n2)CCN1`, the “% Inhibition” value is given as -8% and the Z score amounted to 0.74.
As for `COc1ccc(NC(C)=O)cc1NC(=O)N[C@@H](C)c1cc2ccccc2o1`, the “% Inhibition” value was 6% and the Z score is listed as -1.07.
`CC(C)(C)c1coc([C@@H]2COCCN2Cc2ccc(S(C)(=O)=O)cc2)n1`: the “% Inhibition” value is reported as -16% and the Z score turned out to be 2.12.
`C[C@H](O)CN1CCC(CN(CC(=O)NCc2ccc(F)cc2)CC(=O)NCc2ccc(F)cc2)CC1`: the “% Inhibition” value is -12% and the Z score stood at 1.03.
`Nc1nc(C(=O)NCc2cncn2C2CC2)cs1`: the “% Inhibition” value was -3% and the Z score was 0.52.
As to `Cc1nc(C)c(CC(=O)Nc2nc(C(C)C)cs2)c(=O)[nH]1`, the “% Inhibition” value is recorded as 7% and the Z score is reported as -1.13.
In the case of `COC(=O)CCNS(=O)(=O)Oc1ccccc1O`, the “% Inhibition” value was -6% and the Z score came to 1.04.
For `COC[C@@H]1[C@H](C(=O)Nc2cc(OC)ccc2OC)CCCN1C`, in that order: -7% and 0.85.
Regarding `CC(C)CN1CCO[C@@H](COC(=O)c2ccnn2C)C1`, the “% Inhibition” value was -1% and the Z score is on record as 0.14.
`COC(=O)c1cnc2c(c1)n(CC(=O)N1CCCOCC1)c(=O)n2CC(C)C`: the “% Inhibition” value is recorded as -9% and the Z score amounted to 1.16.
Take `CCC(C)Oc1cccc(NC(=O)N2CCC(C(C)(C)C)C(O)C2)c1` (stereo unspecified): the “% Inhibition” value is given as -7% and the Z score was found to be 0.86.
In the case of `Cc1ccc(-c2nc3ccc(Oc4ccc(N)cc4)cc3nc2-c2ccc(C)c(C)c2)cc1C`, the “% Inhibition” value was 5% and the Z score is reported as -0.82.
`O=C(NCc1ccccn1)c1cccc(S(=O)(=O)N2CCOCC2)c1`: the “% Inhibition” value is -6% and the Z score stood at 0.86.
On to `C=CCn1cc(-c2c(-c3ccccc3)ncn2Cc2nc(CC)cs2)cn1`, for which the “% Inhibition” value came out at 5% and the Z score was -0.78.
`O=C(Nc1cccc(F)c1)c1cc2nc(N3CCCCC3)sc2s1`: the “% Inhibition” value is on record as 5% and the Z score is -0.84.
Consider `Oc1ccc2ncccc2c1[C@@H](Nc1ccccn1)c1cccc(Br)c1`, for which the “% Inhibition” value turned out to be 58% and the Z score was -12.1.
For `CCN(CC)S(=O)(=O)c1ccc(C(=O)N2CCC[C@H]2c2nc3ccccc3n2C)cc1` the same measures were -9% and 1.19.
`N#CC1(C(=O)NC2CCC(F)C2)CCC1` (stereo unspecified): the “% Inhibition” value is on record as -5% and the Z score was found to be 0.46.
For `CC1CC(C)(C)CCC1NC(=O)c1ncncc1Cl` (stereo unspecified), the “% Inhibition” value is reported as 20% and the Z score is on record as -2.52.
For `COc1ccccc1N(CC(=O)N[C@H](C)c1ccccc1)S(=O)(=O)c1ccc(C)cc1` the same measures were 1% and -0.13.
For `CCc1cnc(C)nc1N1CCC(N2CC(n3nc(C)cc3C)C2)CC1` the same measures were 6% and -1.11.
Turning to `O=C(Cn1cncn1)N1CCCC[C@@]12CCCOC2`, the “% Inhibition” value turned out to be 1% and the Z score is given as -0.22.
For `O=C(Nc1cc(F)cc(F)c1)N1CC[C@H](Cc2ccncc2)C1`, the “% Inhibition” value was -5% and the Z score stood at 0.93.
For `Cc1csc(N2CCC(NCc3nc(N(C)C)no3)CC2)n1`, the “% Inhibition” value is -9% and the Z score is recorded as 1.33.
For the molecule `c1cc(Oc2nnn[nH]2)ccc1NC[C@H]1CCOC1`, the “% Inhibition” value is recorded as -15% and the Z score was 1.92.
Regarding `COc1ccc([C@@]2(C)NC(=O)N(Cc3csc(-c4ccccc4)n3)C2=O)cc1OC`, the “% Inhibition” value was -10% and the Z score amounted to 1.56.
With `O=C(Cn1cccc(S(=O)(=O)N2CCCC2)c1=O)Nc1ccc(F)cc1Cl`, the “% Inhibition” value was -4% and the Z score turned out to be 0.62.
Regarding `Cn1nc(-c2cccnc2)cc1CNC(=O)NC(C)(C)C`, the “% Inhibition” value is 13% and the Z score is given as -1.71.
Regarding `N/C(=N\O)c1cccn1-c1nccs1`, the “% Inhibition” value is recorded as 7% and the Z score is reported as -0.81.
Turning to `Cc1nscc1C(=O)Nc1cccc(S(=O)(=O)C2CCOCC2)c1`, the “% Inhibition” value is reported as 13% and the Z score is listed as -1.66.
In the case of `CC(CNC(=O)NCC(O)c1ccsc1)c1ccc(F)cc1F` (stereo unspecified), the “% Inhibition” value is reported as -11% and the Z score was 1.89.
As to `O=C(CCCN1Cc2ccccc2C1)N[C@@H]1C[C@H]2OCC[C@@H]12`, the “% Inhibition” value is recorded as -14% and the Z score turned out to be 1.37.
As to `CCN(CC)c1onc(-c2ccccc2)c1CN(C(=O)CC(C)C)C(C)C`, the “% Inhibition” value came to 1% and the Z score is listed as -0.24.
Take `CC1(C)CC(N[C@@H]2c3ccccc3OC[C@@H]2CO)C1`: the “% Inhibition” value was 2% and the Z score is recorded as -0.21.
For the molecule `COc1cc(CN(C)C(=O)Nc2conc2C)sn1`, the “% Inhibition” value is listed as 3% and the Z score is -0.44.
In the case of `COc1cc(C)ccc1Oc1cc(N2CCN(S(=O)(=O)c3ccc(C)cc3)[C@@H](C)C2)ncn1`, the “% Inhibition” value was -7% and the Z score stood at 0.76.
In the case of `O=C(c1ccc2c(c1)OCO2)N1CCC[C@@](CO)(CCCc2ccccc2)C1`, the “% Inhibition” value came out at 0% and the Z score is -0.01.
Consider `COc1cccc([C@H](c2sc3ncnn3c2O)N2CCCCCC2)c1OC`, for which the “% Inhibition” value was -3% and the Z score is on record as 0.42.
In the case of `CCOC(=O)C1CCN(C(=O)c2ccc3c(c2)CCN3S(C)(=O)=O)CC1`, the “% Inhibition” value is 0% and the Z score is listed as -0.04.
Turning to `Cc1ccc(C(=O)NC[C@H]2CCCO2)c(C2CCN(Cc3ccccc3)CC2)n1`, the “% Inhibition” value is recorded as 6% and the Z score was -0.72.
In the case of `C#CCNC(=O)c1cc(Br)ccc1O`, the “% Inhibition” value was -45% and the Z score is reported as 5.22.
In the case of `COC1(C(=O)Nc2cccc(N(C)C)c2C)CCOCC1`, the “% Inhibition” value stood at 28% and the Z score is -3.14.
As for `Cc1nn(C)c(Cl)c1CNCCc1cn2c(n1)CCCC2`, the “% Inhibition” value is on record as -4% and the Z score was 0.58.
For `C[C@H](NC(=O)Nc1ccccc1)C(=O)N(C)Cc1ccsc1`, in that order: -5% and 0.63.
As for `COCc1nc(CCC(=O)OC)cs1`, the “% Inhibition” value is recorded as 1% and the Z score is given as -0.1.
Regarding `CCc1ccc2ncc3c(-c4ccc(F)cc4)n[nH]c3c2c1`, the “% Inhibition” value was -6% and the Z score was found to be 0.73.
Take `Cc1cc(N(C)C)nc(NC(=O)N2CC[C@H](CN3CCCCC3)C2)n1`: the “% Inhibition” value was -16% and the Z score turned out to be 1.87.
